Measured values from PubChem BioAssay AID463173 (ICCB-Longwood Screening Facility, Harvard Medical School, 2010).
Screen size: about 52,000 compounds; about 1,700 (3.3%) were called active. Cut-off read from the data, not from the text of the source: active = survival mostly below about 52% (no sharp cut-off); inactive = mostly above about 56%. The list shows a part of the results.

Test system: Wild type
Assay: growth inhibition of S. aureus wild type versus tarO mutant, primary screen, teichoic acid synthesis inhibitors, RN4220, OD600 (AID 463173)
Settings: S. aureus RN4220 wild type/DeltatarO growth, OD600, 18 h, active compounds read low, screened at 18.75 µg/mL (by protocol)

SMILES	survival
CCn1c(=N)c(C(=O)NCc2ccccc2)cc2c(=O)n3cccc(C)c3nc21	inactive: 74%
COc1ccc(-n2nnnc2C2CCN(S(=O)(=O)c3ccc(NC(C)=O)cc3)CC2)cc1	inactive: 85%
Cc1cccc(-c2nc(C)c(CCNC(=O)C(=O)Nc3ccccc3C#N)s2)c1	inactive: 100%
COc1ccc(NC(=O)CCc2c(C)nn(-c3ccc(N4CCCCC4)nn3)c2C)cc1Cl	inactive: 85%
CCn1c(C(=O)N2CCC(C(=O)NCCc3ccc(C)cc3)CC2)cc2sccc21	inactive: 89%
Cc1ccc(Cn2ccnc2SCC(=O)NCc2ccccc2Cl)cc1	inactive: 74%
N#Cc1c(C(F)(F)F)cc(-c2ccc(F)cc2)nc1SCC(=O)Nc1ccccc1	inactive: 78%
Cc1ccccc1NC(=O)CSc1nc2ccccc2c2nc(CCn3cncc3C)nn12	inactive: 74%
CCOC(=O)c1ccc(N2C(=O)c3n[nH]c(-c4ccco4)c3C2c2cccc(OC)c2)cc1 (centres undefined)	inactive: 60%
COC(=O)c1ccc2c(=O)n(CCCCCC(=O)NCCc3ccc(Cl)cc3)c(=O)[nH]c2c1	inactive: 64%
COCCCNC(=O)c1ccc(-c2nc(CS(=O)(=O)c3ccc(C)cc3)c(C)o2)cc1	inactive: 78%
Cc1oc(-c2ccc(C(=O)NCc3cccc(F)c3)cc2)nc1COc1ccccc1	inactive: 112%
CCOC(=O)C1CCCN(C(=O)c2ccc3c(c2)sc2nc(-c4ccc(CC)cc4)cn23)C1 (centres undefined)	inactive: 64%
Cc1ccc(CNC(=O)C(C)n2nc(C)n3c(cc4sccc43)c2=O)cc1 (centres undefined)	inactive: 94%
CCn1c(SCC(=O)c2ccc(Br)cc2)nnc1-c1ccncc1	inactive: 104%
CCOc1ccc(S(=O)(=O)NC(=O)N(CC)Cc2cc3ccccc3o2)cc1	inactive: 110%
COc1ccccc1C(=O)Nc1cccc(C(=O)OCc2cc(=O)n3ccsc3n2)c1	active: -6%
Cc1ccc(S(=O)(=O)N(CC(=O)Nc2ccc(Cl)cc2Cl)c2ccccc2C)cc1	inactive: 82%
COc1cccc2c1cc1c(=O)n(CC(=O)N3CCN(c4ccccc4)CC3)nc(C)n12	inactive: 91%
O=C(CCS(=O)(=O)c1ccc(Br)cc1)Nc1ccc(F)cc1F	inactive: 53%
CCc1ccc(CNc2ccc3c(c2)ncn3C(C)(C)C)cc1	active: -16%
Cc1ccc(-c2nc3ncccn3c2Nc2ccc3c(c2)OCCO3)cc1	inactive: 77%
Cc1cccc(NS(=O)(=O)c2ccc3c(c2)CC(C)N3C(=O)C2CCC2)c1C (centres undefined)	inactive: 74%

SMILES	survival
CCc1nc2ccc(C(=O)NCc3cc(OC)ccc3OC)cc2nc1CC	inactive: 135%
O=C1CC(c2nc(-c3ccccc3)no2)CN1c1ccccc1 (centres undefined)	inactive: 19%
CCOc1ccc(N2CC(c3nc4ccccc4n3CCOc3ccccc3OC)CC2=O)cc1 (centres undefined)	inactive: 34%
Cc1cccc2sc(N(CCN(C)C)C(=O)c3ccc4c(c3)OCCO4)nc12	inactive: 131%
COc1ccc(Cn2c(=O)n(Cc3ccco3)c(=O)c3oc4ccccc4c32)cc1	inactive: 91%
CCOc1ccc(CCNC(=O)CS(=O)(=O)Cc2nc(-c3ccc(OC)cc3)oc2C)cc1	inactive: 88%
COc1ccc(-c2nc(CSCC(=O)N3CCN(c4cc(Cl)ccc4C)CC3)c(C)o2)cc1	active: -1%
CCN(CC)c1ccc(NC(=O)c2cnn(-c3ccccc3)c2-n2cccc2)c(C)c1	inactive: 127%
Cc1ccc(Cn2c(C)c3cnn(CC(=O)NCc4ccccc4)c(=O)c3c2C)cc1	inactive: 132%
CC(=O)N1CCc2cc(S(=O)(=O)CCC(=O)Nc3ccc(C)cc3Br)ccc21	inactive: 83%
Cc1cc(OC(C)C(=O)Nc2cccc(-c3nc4ccccc4o3)c2)cc(C)c1Cl (centres undefined)	inactive: 55%
O=C(NCCCN1CCCCCC1)c1ccc2c(c1)sc1nc(-c3ccccc3)cn12	inactive: 38%
COc1ccc(-c2nc(CS(=O)(=O)CC(=O)NCc3ccccc3Br)c(C)o2)cc1	inactive: 60%
Cc1ccc(CNC(=O)CCCn2c(=O)c3ccccc3n(CC(=O)Nc3ccc(C)cc3)c2=O)cc1	inactive: 72%
CCC(C(=O)Nc1ccc(C)c(C)c1)n1c(=O)c(C(F)(F)F)nc2ccccc21 (centres undefined)	inactive: 101%
CCOc1ccc(NC(=O)CCc2c(C)nn(-c3ccc(N4CCCC4)nn3)c2C)cc1	inactive: 110%
Cc1nc2cc(-c3ccccc3)nn2c(C)c1CCC(=O)Nc1ccc(F)cc1F	inactive: 79%
Cc1ccc(CNC(=O)CS(=O)(=O)c2cccc3nsnc23)cc1	inactive: 135%
CCOC(=O)c1c(NC(=O)COc2ccc(Cl)cc2C)sc2c1CCCCC2	inactive: 80%
COc1ccccc1C(O)(C(=O)NNc1cccc(Br)n1)c1ccccc1OC	inactive: 106%
COc1cccc(NC(=O)Cn2c(=O)n(CCC(=O)NCCc3ccc(Cl)cc3)c(=O)c3ccccc32)c1	inactive: 105%
CC(C)(C)c1ccc(C(=O)NC2CCSC2=O)cc1 (centres undefined)	inactive: 111%
COc1ccc(CCNC(=O)Cc2c(C)c3cc4c(C(C)(C)C)coc4c(C)c3oc2=O)cc1	inactive: 98%

SMILES	survival
Cc1ccc(C)c(Nc2cc(C(=O)NC3CCCC3)c3ccccc3n2)c1	inactive: 93%
COc1ccc(NC(=O)CC2C(=O)N(c3ccc(OC)cc3)C(=O)N2CCC2=CCCCC2)cc1 (centres undefined)	inactive: 71%
Cc1ccc(CNC(=O)c2cc3c(=O)n(Cc4ccco4)ccc3nc2C)cc1	inactive: 79%
COc1cc(-c2noc(-c3ccc(NCC4CCCO4)c([N+](=O)[O-])c3)n2)cc(OC)c1OC (centres undefined)	inactive: 87%
COC(=O)c1ccc(CO)nc1	inactive: 101%
COc1cc(NC(=O)CSc2nc3ncccc3o2)cc(OC)c1	inactive: 57%
O=C1c2cc(OCCN3CCOCC3)ccc2-c2ccc(OCCN3CCOCC3)cc21	inactive: 95%
COc1cc(NC(=O)CN2CCN(c3ccc(F)cc3)CC2)cc(OC)c1	inactive: 99%
CCn1cc2nc(SCC(=O)Nc3cc(OC)cc(OC)c3)n(Cc3ccc(Cl)cc3)c(=O)c2n1	inactive: 98%
Cc1ccc2oc(-c3ccc(NC(=O)CCC(=O)O)cc3)nc2c1	inactive: 65%
Cc1ccc(NC(=O)CCc2c(C)nc3c(-c4ccc(F)cc4)c(C)nn3c2C)cc1F	inactive: 82%
Cc1cc(C)c(Nc2ncnc3c2cnn3C)c(C)c1	inactive: 89%
Cc1nn(CC(=O)NC2CCC(C)CC2)c(=O)c2c1sc1ccccc12 (centres undefined)	inactive: 82%
O=C(/C=C/c1ccccc1Cl)N1CCC(c2nc3ccccc3o2)CC1	inactive: 72%
Cc1ccccc1N1C(=O)c2ccccc2NC1c1ccncc1 (centres undefined)	inactive: 101%
COC(=O)N1CCCc2cc(S(=O)(=O)NCc3ccccc3)ccc21	inactive: 86%
CCOc1ccc(NC(=O)c2sc3nc4n(c(=O)c3c2C)CCC4)cc1	inactive: 87%
COc1ccc(-c2nn3c(=O)cc(CN4CCN(C(=O)/C=C/c5ccccc5)CC4)nc3s2)cc1	inactive: 72%
Cc1cccc(C)c1NC(=O)c1ccc2c(c1)nnn2C1CCCC1	active: -6%
CCOc1cc(-c2ccc(OC(=O)c3ccccc3Cl)c(OC)c2)cc(=O)c2c(C)oc(C)c12	inactive: 83%
CCOC(=O)c1cc2occc2n1Cc1c(F)cccc1Cl	inactive: 100%
CC(C)(C)NC(=O)Cc1ccccc1	inactive: 103%
COc1ccc(C2CC(=O)Nc3c2c(=O)[nH]c2nc4ccccc4n32)cc1 (centres undefined)	inactive: 75%

SMILES	survival
Cc1ccccc1COC(=O)c1nn(-c2ccccc2)nc1N	active: -9%
COc1ccccc1N1CCN(C(=O)Cn2c(=O)n3nc(-c4cccc(F)c4)nc3c3ccccc32)CC1	inactive: 70%
O=C(COc1ccccc1O)NCCN1CCOCC1	inactive: 98%
CCCCN(CC)CCNC(=O)C1CCN(S(=O)(=O)c2cccc3nsnc23)CC1	inactive: 87%
CCNC(=O)c1ccc(NC(=O)N2CCCCc3ccccc32)cc1	inactive: 74%
Cc1cc(C)cc(NC(=O)CSc2nc3c(c(=O)[nH]2)CN(Cc2ccc(F)cc2)CC3)c1	inactive: 83%
CCn1cc(C(=O)Nc2cccc(Cl)c2)c2cc(OC)c(OC)cc2c1=O	inactive: 76%
CC(=O)c1ccc(N2CCN(S(=O)(=O)c3ccc(-c4coc(C)n4)cc3)CC2)cc1	inactive: 71%
CC(CCc1ccccc1)NC(=O)Cn1ncc2c3ccccc3n(Cc3ccccc3F)c2c1=O (centres undefined)	inactive: 85%
CCc1nn(CC(=O)N2CCN(c3ccc(OC)cc3)CC2)c(=O)c2cc3sccc3n12	inactive: 88%
Cn1c(=O)oc2cc(S(=O)(=O)CCC(=O)N3CCN(c4ccccc4F)CC3)ccc21	inactive: 90%
O=C(CCn1c(=O)c2cccn2c2cccnc21)N1CCN(c2ccccc2)CC1	inactive: 111%
CCC(=O)C1=C(c2ccc(F)cc2)N(C(=O)CC)n2c(nnc2-c2ccc(OC)cc2)S1	inactive: 53%
O=C(CSc1nccn1-c1cccc(Cl)c1)Nc1ccc2c(c1)OCO2	inactive: 71%
CCN(C(=O)C1CCN(S(=O)(=O)c2cc(Br)cc3c2N(C(C)=O)CC3)CC1)c1cccc(C)c1	inactive: 93%
COc1ccc(-c2cnc(C)o2)cc1S(=O)(=O)Nc1ccc(NC(C)=O)cc1	inactive: 81%
CCC(=O)NNc1ncnc2c1cnn2-c1ccc(C)c(Cl)c1	inactive: 68%
CCn1c(SCC(=O)Nc2ccccc2C(=O)OC)nc2ccsc2c1=O	inactive: 83%
Cc1ccc(-c2cc(C(=O)Oc3ccc(C#N)cc3)no2)cc1	inactive: 88%
O=C(O)CCC(=O)NCc1ccccn1	inactive: 84%
